Measurements reported in paper PMC4336329 (PLoS ONE, 2015).
In all, about 310,000 compounds went through this assay and about 2,200 (0.71%) showed an effect of 50% or more. The effect is printed as a negative number. This is one part of the list.

What follows are compounds tested against human ether-à-go-go-related gene (hERG) potassium channel (human, UniProt Q12809) (assay: primary screen, population patch clamp on CHO cells stably expressing hERG).
Chain of human ether-à-go-go-related gene (hERG) potassium channel (Q12809 whole entry, looked up): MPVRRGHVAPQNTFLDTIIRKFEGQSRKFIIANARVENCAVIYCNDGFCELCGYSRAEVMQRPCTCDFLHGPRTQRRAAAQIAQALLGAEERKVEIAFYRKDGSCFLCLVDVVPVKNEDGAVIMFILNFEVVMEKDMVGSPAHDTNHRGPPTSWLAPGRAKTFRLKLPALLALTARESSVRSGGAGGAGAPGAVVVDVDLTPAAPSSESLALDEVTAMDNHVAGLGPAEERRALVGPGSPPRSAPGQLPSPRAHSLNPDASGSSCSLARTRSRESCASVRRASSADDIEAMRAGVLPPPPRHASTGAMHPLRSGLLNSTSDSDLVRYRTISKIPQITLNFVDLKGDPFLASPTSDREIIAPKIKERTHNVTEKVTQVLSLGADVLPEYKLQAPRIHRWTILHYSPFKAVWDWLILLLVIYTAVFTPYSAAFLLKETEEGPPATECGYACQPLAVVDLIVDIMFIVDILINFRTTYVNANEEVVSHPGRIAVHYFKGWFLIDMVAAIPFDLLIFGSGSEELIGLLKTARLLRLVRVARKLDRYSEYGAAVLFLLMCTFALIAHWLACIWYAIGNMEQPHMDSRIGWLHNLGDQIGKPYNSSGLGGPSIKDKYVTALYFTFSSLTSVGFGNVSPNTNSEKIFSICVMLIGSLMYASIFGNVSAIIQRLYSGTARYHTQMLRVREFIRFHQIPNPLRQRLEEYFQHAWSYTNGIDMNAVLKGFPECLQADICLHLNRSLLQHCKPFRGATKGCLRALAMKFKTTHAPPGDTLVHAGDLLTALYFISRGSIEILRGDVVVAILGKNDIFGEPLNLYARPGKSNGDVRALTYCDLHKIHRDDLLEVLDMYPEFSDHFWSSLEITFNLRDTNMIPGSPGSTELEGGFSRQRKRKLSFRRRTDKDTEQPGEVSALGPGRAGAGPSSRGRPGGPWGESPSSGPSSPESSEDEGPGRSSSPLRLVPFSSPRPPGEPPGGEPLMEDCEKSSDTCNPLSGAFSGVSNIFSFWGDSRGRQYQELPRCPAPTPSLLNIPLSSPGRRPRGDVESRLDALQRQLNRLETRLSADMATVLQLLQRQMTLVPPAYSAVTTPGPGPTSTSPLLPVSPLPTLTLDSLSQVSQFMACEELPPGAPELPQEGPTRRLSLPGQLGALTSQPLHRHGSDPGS
With `CSc1nc2c(c(=O)[nH]c(=O)n2C)n1C/C=C(\C)Cl` the “hERG current change (%, negative = inhibition) at 1uM” value was 5.61%.
`Cc1csc(NC(=O)Cc2coc3cc(C)c(C(C)C)cc23)n1` was tested, and the “hERG current change (%, negative = inhibition) at 1uM” value was 14.8%.
In the case of `COc1ccc(/C=C(\C#N)C(=O)OCC(=O)NC(C)c2ccccc2)cc1` (stereo not drawn), the “hERG current change (%, negative = inhibition) at 1uM” value was -9.58%.
With `CCN(CC)S(=O)(=O)c1ccc2c(c1)nc(SCc1nc3ccsc3c(=O)[nH]1)n2CC` the “hERG current change (%, negative = inhibition) at 1uM” value was -16.5%.
`CCCc1cc(NCCCn2ccnc2)n2nc(C)c(-c3ccccc3)c2n1` was tested, and the “hERG current change (%, negative = inhibition) at 1uM” value was -7.1%.
`O=P(Cc1ccccc1)(c1ccccc1)c1ccccc1` was tested, and the “hERG current change (%, negative = inhibition) at 1uM” value was 11.5%.
In the case of `CC1CCCC(C)N1C(=O)CSc1nc(N)cc(N)n1` (stereo not drawn), the “hERG current change (%, negative = inhibition) at 1uM” value was 12.9%.
For `CN(C)S(=O)(=O)c1cccc(NC(=O)c2ccc(COc3ccccc3)cc2)c1`, the “hERG current change (%, negative = inhibition) at 1uM” value was 9.82%.
With `N#Cc1cc(S(=O)(=O)N2CCOCC2)ccc1N1CCOCC1` the “hERG current change (%, negative = inhibition) at 1uM” value was 4.8%.
For `COc1ccc(Cl)cc1S(=O)(=O)N1CCN(C(=O)c2ccco2)CC1`, the “hERG current change (%, negative = inhibition) at 1uM” value was 0.165%.
In the case of `CCn1cc(C(=O)O)c(=O)c2cc(F)c(N3CCN(C(=O)Nc4ccccc4)CC3)cc21`, the “hERG current change (%, negative = inhibition) at 1uM” value was 11.8%.
In the case of `Cc1ccc(N2Cc3ccccc3OC(C)C2=O)cc1` (stereo not drawn), the “hERG current change (%, negative = inhibition) at 1uM” value was 12.5%.
In the case of `CCCCCCCCCC(=O)Nc1cccnc1`, the “hERG current change (%, negative = inhibition) at 1uM” value was 6.58%.
With `CCOc1ccc(NC(=O)CN2C(=O)CSC2=O)cc1` the “hERG current change (%, negative = inhibition) at 1uM” value was 10.5%.
With `O=S(=O)(Nc1ccc(Br)cn1)c1ccc2ccccc2c1` the “hERG current change (%, negative = inhibition) at 1uM” value was 23.8%.
In the case of `COc1ccccc1-c1ccc(Nc2ccc(C(=O)N3CCOCC3)cc2)nn1`, the “hERG current change (%, negative = inhibition) at 1uM” value was 1.47%.
With `O=C1/C(=C/c2ccncc2)SC(=S)N1N1CCOCC1` the “hERG current change (%, negative = inhibition) at 1uM” value was 11.7%.
With `C/C(CC(=O)Nc1cccc(C(F)(F)F)c1)=N/NC(=O)C(=O)NCCO` the “hERG current change (%, negative = inhibition) at 1uM” value was 22.5%.
In the case of `COc1ccc(C(=O)NCc2ccncc2)cc1S(=O)(=O)N1CCOCC1`, the “hERG current change (%, negative = inhibition) at 1uM” value was -1.77%.
With `CC(C)(C)c1ccc(C(=O)N/C(=C\c2cccs2)C(=O)NCc2ccco2)cc1` the “hERG current change (%, negative = inhibition) at 1uM” value was 8.21%.
With `COC(=O)c1[nH]c2ccc(C)cc2c1NC(=O)Nc1ccccc1OC` the “hERG current change (%, negative = inhibition) at 1uM” value was 0.78%.
For `COc1ccc(O)c(-c2[nH]ncc2C(=O)c2ccccc2C)c1`, the “hERG current change (%, negative = inhibition) at 1uM” value was 4.01%.
With `O=C(CCNC(=O)c1ccccc1Cl)Nc1nccs1` the “hERG current change (%, negative = inhibition) at 1uM” value was 9.21%.
`O=C(C1CCCO1)N1CCN(C(=S)Nc2ccc(Cl)cc2)CC1` (stereo not drawn) was tested, and the “hERG current change (%, negative = inhibition) at 1uM” value was 0.373%.
With `Cc1nn(C)cc1CN(C)Cc1c(C(=O)N(C)Cc2ccccc2)nc2ccccn12` the “hERG current change (%, negative = inhibition) at 1uM” value was 6.16%.
For `CCOC(=O)/C(C#N)=C1/SC(CC)C(=O)N1c1ccc(Br)cc1` (stereo not drawn), the “hERG current change (%, negative = inhibition) at 1uM” value was -8.3%.
`COc1cccc(N2CC(O)Cn3c2nc2c3c(=O)n(CCCc3ccccc3)c(=O)n2C)c1` (stereo not drawn) was tested, and the “hERG current change (%, negative = inhibition) at 1uM” value was 2.34%.
For `COc1ccc(NC(=O)CSCC(=O)Nc2cccc(S(=O)(=O)N3CCCCCC3)c2)cc1`, the “hERG current change (%, negative = inhibition) at 1uM” value was 11.8%.
`Cc1cc(C)cc(NC(=S)Nc2ccc3cn[nH]c3c2)c1` was tested, and the “hERG current change (%, negative = inhibition) at 1uM” value was -1.54%.
`COc1ccccc1-n1c(O)c(/C=N/NC(=S)Nc2ccccc2)c(=O)[nH]c1=S` was tested, and the “hERG current change (%, negative = inhibition) at 1uM” value was 10.8%.
`COC(=O)Cc1coc2cc(OC)ccc12` was tested, and the “hERG current change (%, negative = inhibition) at 1uM” value was 17.6%.
For `CN(C)c1ccc(/C=N/NC(=O)COc2ccccc2)cc1`, the “hERG current change (%, negative = inhibition) at 1uM” value was 0.705%.
In the case of `Nc1ccc(C(=O)c2cccs2)cn1`, the “hERG current change (%, negative = inhibition) at 1uM” value was 1.62%.
`Cc1ccccc1-n1ccnc1SCC(=O)O` was tested, and the “hERG current change (%, negative = inhibition) at 1uM” value was 15.5%.
For `C=Cn1c(C(=O)O)cc(CC)c1-c1ccccc1`, the “hERG current change (%, negative = inhibition) at 1uM” value was -1.72%.
In the case of `O=C(Oc1ccc2c(c1)OCO2)c1ccc(Br)c(S(=O)(=O)N2CCOCC2)c1`, the “hERG current change (%, negative = inhibition) at 1uM” value was 5.08%.
`COC(=O)CCC(=O)COc1ccccc1C#N` was tested, and the “hERG current change (%, negative = inhibition) at 1uM” value was 4.66%.
In the case of `C(=C\c1ccco1)/c1nc2ccccc2[nH]1`, the “hERG current change (%, negative = inhibition) at 1uM” value was 4.56%.
With `COc1ccc(/C=N/NC(=O)c2ccncc2)cc1OC` the “hERG current change (%, negative = inhibition) at 1uM” value was 11.5%.
In the case of `O=C1NC(=O)/C(=C/c2ccc(N3CCOCC3)o2)N1`, the “hERG current change (%, negative = inhibition) at 1uM” value was 14.4%.
With `Cc1ccc(C)c(S(=O)(=O)NC(CCC(N)=O)C(=O)O)c1` (stereo not drawn) the “hERG current change (%, negative = inhibition) at 1uM” value was 9.59%.
For `CCc1cc2c(-c3ccccc3)cc(=O)oc2cc1OC(C)C(C)=O` (stereo not drawn), the “hERG current change (%, negative = inhibition) at 1uM” value was 14%.
With `CCCCN(CCCC)CCCNC(=O)C1CC(c2cc(C(F)(F)F)cc(C(F)(F)F)c2)=NO1` (stereo not drawn) the “hERG current change (%, negative = inhibition) at 1uM” value was 12.4%.
For `CC(NC(=O)NCCCn1ccnc1)(C(F)(F)F)C(F)(F)F`, the “hERG current change (%, negative = inhibition) at 1uM” value was 19.2%.
`O=C(NCc1ccccc1)C1=C[C@@H](c2ccc(Br)cc2)C[C@@H](OCCCCO)O1` was tested, and the “hERG current change (%, negative = inhibition) at 1uM” value was 4.43%.
